PubChem BioAssay AID624170 (National Center for Advancing Translational Sciences (NCATS), 2012)
About 850 (0.21%) of roughly 410,000 compounds were called active. The shares of active, inactive and inconclusive entries below differ from those in the screen. The call rests on the fitted dose curve; in most records, active means well fitted inhibition curve with a large enough effect; inconclusive means small, poorly fitted or top-dose-only effect, or another doubt; inactive means no such curve, though single readings can be large or run the other way. Potencies of inconclusive entries are left out as doubtful fits.

These compounds were tested against Glutaminase kidney isoform, mitochondrial (Homo sapiens) (UniProt O94925) (assay: qHTS for Inhibitors of Glutaminase (GLS)). Settings: GLS enzymatic activity, qHTS titration; series mostly up to 45.5 µM.
In short: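 Assay buffer: 45 mM KH2PO4 pH 8.2, 0.02% Tween-20. hKGA acts on L-glutamine (1 mM solution added); product glutamate is reported by an oxidase/peroxidase Amplex Red coupling, with fluorescence taken at baseline and 30 min.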
Potency means the concentration at half of the fitted maximal effect; tags describe the fitted curve by direction and shape.

Sequence of UniProt O94925 (O94925 whole entry, looked up, canonical isoform): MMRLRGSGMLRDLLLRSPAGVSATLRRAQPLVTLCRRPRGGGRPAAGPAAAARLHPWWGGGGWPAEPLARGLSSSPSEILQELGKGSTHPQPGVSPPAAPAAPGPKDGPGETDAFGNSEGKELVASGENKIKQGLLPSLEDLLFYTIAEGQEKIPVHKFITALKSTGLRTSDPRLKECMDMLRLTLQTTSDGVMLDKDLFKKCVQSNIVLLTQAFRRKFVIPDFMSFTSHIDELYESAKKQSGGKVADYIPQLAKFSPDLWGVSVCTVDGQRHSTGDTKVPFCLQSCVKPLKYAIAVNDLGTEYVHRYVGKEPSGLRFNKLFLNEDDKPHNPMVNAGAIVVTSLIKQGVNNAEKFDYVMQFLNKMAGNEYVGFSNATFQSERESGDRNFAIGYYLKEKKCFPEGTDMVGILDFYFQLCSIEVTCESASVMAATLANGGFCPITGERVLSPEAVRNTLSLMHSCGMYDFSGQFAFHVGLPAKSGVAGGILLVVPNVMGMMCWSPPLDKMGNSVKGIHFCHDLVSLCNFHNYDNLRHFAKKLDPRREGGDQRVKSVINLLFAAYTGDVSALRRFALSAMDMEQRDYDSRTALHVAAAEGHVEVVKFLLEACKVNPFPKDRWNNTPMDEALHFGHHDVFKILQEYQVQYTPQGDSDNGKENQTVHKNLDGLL

SMILES	Potency
Cc1nnc(N/N=C/c2cc(C)n(-c3ccc(F)cc3)c2C)n1N	inconclusive [inhibitor, single point]
COc1ccc(CNC(=O)C2CCCN(c3nnc(C)c4c(C)n(-c5ccc(C)cc5)nc34)C2)cc1 (centres undefined)	inconclusive [inhibitor, partial curve, poor fit]
CC(C)CNC(=O)COC(=O)c1c2c(nc3ccccc13)/C(=C/c1cccs1)CC2	inconclusive [inhibitor, single point]
COc1ccc(O)c(C(=O)c2coc(=N)c(C(=O)Nc3ccc(SC(F)F)cc3)c2)c1	inconclusive [inhibitor, partial curve]
Cc1ccc(NC2CC(=O)N(c3ccc(C)cc3)C2=O)cc1 (centres undefined)	inactive
S=c1[nH]nc(-c2ccc3ccccc3n2)n1-c1ccc2ncccc2c1	inconclusive [inhibitor, partial curve, poor fit]
O=C(Nc1ccccc1)c1ccccc1Br	inconclusive [inhibitor, single point]
C(=N\Nc1nc2ccccc2[nH]1)/c1ccc2ncccc2c1	inconclusive [inhibitor, partial curve, poor fit]
CCn1c(SCC(=O)Nc2ccc3c(c2)c2ccccc2n3CC)nnc1-c1ccco1	inconclusive [inhibitor, partial curve]
COc1cccc(NC(=O)Cn2nc(C)c3c(C)n(-c4ccccc4)nc3c2=O)c1	inactive
Oc1ccc(N2CCN(c3nc(-c4cccs4)nc4ccccc34)CC2)cc1	inconclusive [inhibitor, full curve]
COc1ccccc1C(=O)NC(=S)Nc1ccc(NC(=O)c2ccco2)cc1	inactive
CCOC(=O)COc1nc(N(C)C)nc(N(C)C)n1	inactive
O=C1C(O)=C(O)C(=O)C(O)=C1O	active: 20 µM
CCn1nc(C(=O)NNS(=O)(=O)c2cc(/C=C/C(=O)O)cc(OC)c2OC)c2ccccc2c1=O	inconclusive [inhibitor, partial curve]
CCC(=O)Nc1ccc(NC(=O)CSc2nnnn2-c2ccc(OC)cc2)cc1	inactive
O=C(C(=Cc1ccc(F)cc1)c1ccccc1)c1ccc(O)cc1	active: 11.2 µM
CNC(C)C(=O)NC(C(=O)NC(C(=O)Nc1cccc2ccccc12)C(C)C)C(C)C (centres undefined)	inconclusive [inhibitor, single point]
CC(=O)c1ccc(NC(=O)CSc2ccc3nnc(CCNS(=O)(=O)c4ccc(C)cc4)n3n2)cc1	inconclusive [inhibitor, single point]
CCOC(=O)C1=C(C)N(C)C(C)=C(C(=O)OCC)C1c1ccc(Cl)cc1	inconclusive [inhibitor, single point]
NC(=O)C1CCN(C(=O)CCSc2ccc(Cl)cc2)CC1	inconclusive [inhibitor, single point]
COc1cc(/C=N\NC(=O)c2ccc(-c3ccccc3)cc2)cc(OC)c1OC(C)=O	inactive

SMILES	Potency
O=C(c1cc2ncc(Br)cn2n1)N1CCN(C(=O)c2ccco2)CC1	inconclusive [inhibitor, single point]
O=C(NNc1ccccn1)C(c1ccccc1)c1ccccc1	inconclusive [inhibitor, partial curve]
COc1cc(CNc2ccc(N3CCCC3)cc2)cc(Cl)c1OC	inconclusive [inhibitor, partial curve]
Cc1ccc(C)n1-c1nc(=S)[nH][nH]1	inconclusive [inhibitor, single point]
COCCn1c(Cc2ccccc2)nnc1SCC(=O)Nc1oc(C)c2c(C)n[nH]c(=O)c12	inactive
OC(c1cc(-c2cccc(Cl)c2)nc2ccccc12)C1CCCCN1 (centres undefined)	inactive
N#Cc1nc(-c2ccccc2F)oc1NCCc1ccccn1	inactive
Cc1cccc(OCC(=O)N/N=C\C=C\c2ccc3c(c2)OCO3)c1C	inconclusive [inhibitor, single point]
CC1=CC(=O)C(C(C)C)=C/C1=C(\c1cc(C(C)C)c(OP(=O)(O)O)cc1C)c1ccccc1C(=O)O	inconclusive [inhibitor, full curve]
CCc1nc2ccc(C(=O)NCc3ccccc3OC)cn2c1N(CC)CCOC	inconclusive [inhibitor, single point]
O=C(CSc1nnc(-c2ccc(Cl)cc2Cl)n1C1CCCCC1)N1CCCC1	inactive
N/N=c1\sc2ccccc2n1-c1ccccc1	inconclusive [inhibitor, single point]
Cc1c2c(=O)n(-c3nc4ccccc4s3)nc-2cc(O)n1Cc1ccccc1	inactive
CCCCC(=O)N(C)c1c(CC)nc2c(OCC=C(C)C)cccn12	inactive
Oc1ccc(Br)cc1-c1nc2cnccn2c1NC1CCCC1	inconclusive [inhibitor, single point]
CC(C)Cc1c2c([nH]c(=S)c1C#N)CCCC2	inconclusive [inhibitor, full curve]
CCCCn1c(N)c(N(CC(C)C)C(=O)COC(=O)c2ccccc2NCCO)c(=O)[nH]c1=O	inactive
CC[n+]1c(-c2ccccc2)csc1Nc1c(C)n(C)n(-c2ccccc2)c1=O	inactive
COc1ccc(-c2nc3cccc(C)n3c2NCC2CCCO2)cc1O (centres undefined)	inconclusive [inhibitor, partial curve, poor fit]
Cn1cccc1C(=O)NC(=O)COC(=O)Cc1coc2ccc3ccccc3c12	inconclusive [inhibitor, partial curve]
COc1ccccc1NC(=O)CSC1=Nc2ccccc2C2=NC(CC(=O)NCc3ccc4c(c3)OCO4)C(=O)N12 (centres undefined)	inconclusive [inhibitor, single point]
Cc1cc(SCc2ccc(Cl)cc2Cl)nc(=O)[nH]1	inconclusive [inhibitor, partial curve, poor fit]
